Assay results taken from article PMC2425476 (Nucleic Acids Research, 2008).

B1: δ subunit W279A mutant (natural protein)
chain: not shown
B2: δ subunit R277A mutant (natural protein)
chain: not shown
B3: δ subunit W279A/R283A double mutant (natural protein)
chain: not shown
B4: δ subunit W279A/R277A double mutant (natural protein)
chain: not shown
B5: δ subunit R283A mutant (natural protein)
chain: not shown
B6: δ subunit W279Y mutant (natural protein)
chain: not shown

What follows are binders tested against T1, γ subunit of the E. coli clamp loader (γ complex) (Escherichia coli).
B1: binds.

Target: T1, γ subunit of the E. coli clamp loader …
Remark: another data set of the same source
B2: binds. B3: binds. B4: binds. B5: binds. B6: binds.
